The chains are these.
T1: RBFOX1 RRM RbFoxmut (Fox-RRM*) (Homo sapiens, UniProt Q9NWB1 109-208, R118D;E147R;N151S;E152T)
T1 sequence: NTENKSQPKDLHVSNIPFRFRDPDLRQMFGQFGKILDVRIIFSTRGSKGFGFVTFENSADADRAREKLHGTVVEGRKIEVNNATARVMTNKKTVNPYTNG

B1: CAUAUGG (DNA:RNA)
RNA: GGGAGACCGGAAUUCAGAUUGUCCCAUAUGGUUAAAUCCCGUCGUAGCCACCA
DNA 1: CAATCTGAATTCCGGTCTCCC
DNA 2: TGGTGGCTACGACGGGATT
B2: ACCUGUC (DNA:RNA)
RNA: GGGAGACCGGAAUUCAGAUUGUCCACCUGUCUUAAAUCCCGUCGUAGCCACCA
DNA 1: CAATCTGAATTCCGGTCTCCC
DNA 2: TGGTGGCTACGACGGGATT
B3: GGUGCAG (DNA:RNA)
RNA: B1 RNA with C25G, A26G, A28G, U29C, G30A
DNA 1: CAATCTGAATTCCGGTCTCCC
DNA 2: TGGTGGCTACGACGGGATT
B4: CGGAGAA (DNA:RNA)
RNA: B1 RNA with A26G, U27G, U29G, G30A, G31A
DNA 1: CAATCTGAATTCCGGTCTCCC
DNA 2: TGGTGGCTACGACGGGATT
B5: UCAGUCC (DNA:RNA)
RNA: B2 RNA with A25U, C27A, U28G, G29U, U30C
DNA 1: CAATCTGAATTCCGGTCTCCC
DNA 2: TGGTGGCTACGACGGGATT
B6: UACUAUU (DNA:RNA)
RNA: B2 RNA with A25U, C26A, G29A, C31U
DNA 1: CAATCTGAATTCCGGTCTCCC
DNA 2: TGGTGGCTACGACGGGATT
B7: CUGGCUC (DNA:RNA)
RNA: B2 RNA with A25C, C26U, C27G, U28G, G29C
DNA 1: CAATCTGAATTCCGGTCTCCC
DNA 2: TGGTGGCTACGACGGGATT
B8: GCAGGCU (DNA:RNA)
RNA: B2 RNA with A25G, C27A, U28G, U30C, C31U
DNA 1: CAATCTGAATTCCGGTCTCCC
DNA 2: TGGTGGCTACGACGGGATT
B9: ACCUACA (DNA:RNA)
RNA: B2 RNA with G29A, U30C, C31A
DNA 1: CAATCTGAATTCCGGTCTCCC
DNA 2: TGGTGGCTACGACGGGATT

Residue numbers refer to the chain shown, from its start. The list shows a part of the results.

The assay deals with T1, RBFOX1 RRM RbFoxmut (Fox-RRM*). In words: EMSA; HiTS-Eq, 1 nM pool, 10 min; buffer printed only for the single-RNA assays: 10 mM Tris pH 7.5, 150 mM NaCl, 3.4 mM EDTA, 0.001% NP-40, 30 C. Conditions: tags: His6 N-terminal (pET28a); label: 5' 32P. The procedure, abridged: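 These values rest on relative association constants, computed from read-count changes of each RNA species versus the control reaction and normalised to the cognate motif. Reads came from free RNA recovered by 8% native PAGE after purified RbFox RRM (wild type or mutant) at increasing concentrations was equilibrated for 10 min in 50 µL with 1 nM of a 5′-radiolabelled pool with 7 randomized nucleotides and DNA-annealed flanks.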
As to B1, the binding signal is 0.0964 KA relative to UGCAUGU.

As for B2, the binding signal was 0.177 KA relative to UGCAUGU.

B3: the binding signal is 0.105 KA relative to UGCAUGU.

B4: the binding signal was 0.0966 KA relative to UGCAUGU.

Consider B5, for which the binding signal is 0.0654 KA relative to UGCAUGU.

In the case of B6, the binding signal is 0.0732 KA relative to UGCAUGU.

As to B7, the binding signal was 0.14 KA relative to UGCAUGU.

Take B8: the binding signal was 0.0762 KA relative to UGCAUGU.

Regarding B9, the binding signal is 0.107 KA relative to UGCAUGU.

These data come from publication PMC9911399, “Two distinct binding modes provide the RNA-binding protein RbFox with extraordinary sequence specificity”.
